The campaign covered roughly 410,000 compounds. About 5,000 (1.2%) were called active. The shares of active, inactive and inconclusive entries below differ from those in the screen. Calls come from the whole dose curve; as a rule, active = well fitted inhibition curve with a large enough effect; inconclusive = small, poorly fitted or top-dose-only effect; inactive = no such curve, though single readings can be large or run the other way. Potencies beside an inconclusive call are fits to weak or partial responses and may not hold up.
Test: qHTS for Inhibitors of TGF-b; note: nearly all actives have a fitted effect of over 65% in size
Details: HepG2 CAGA-GFP TGF-b/SMAD3 reporter, GFP fluorescence, 18 h, TGF-beta stimulated, 500 pg/mL final; series mostly up to 46.1 µM; activity, negative = inhibition: at the top concentration
Procedure, shortened: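 Cell-based qHTS in HEPG2 carrying a CAGA-GFP Smad reporter; compounds added before 500 pg/mL final TGF-beta, 18 h incubation at 37 degrees C, GFP fluorescence quantified per cell by imaging cytometry.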
% is set by controls: 0 for no effect and ±100 for the full control effect; potency is the fitted concentration of half-maximal effect; tags give direction and shape of the fitted curve.

| Structure (SMILES) | Potency | activity, negative = inhibition |
| --- | --- | --- |
| Cc1cc(C)n(CCc2nc(-c3cc4ccccc4o3)cs2)n1 | inconclusive: 35.5 µM [inhibitor, single point] |  |
| S=C(NCCCCN(Cc1ccc(Cl)cc1)c1ccc(Br)cn1)NCCCc1cnc[nH]1 | inconclusive: 35.5 µM [inhibitor, single point] |  |
| Cc1cc(NC(=O)Cn2cnc3c2c(=O)n(C)c(=O)n3C)n(-c2ccccc2)n1 | inconclusive: 5.62 µM [inhibitor, single point] |  |
| Cc1ccccc1OCC(=O)N1N=C(C(F)(F)F)CC1(O)C(C)(C)C (configuration not stated) | inconclusive: 8.91 µM [inhibitor, partial curve, poor fit] |  |
| C=C1CCN([C@@H](C)C(=O)NCc2ccc(OC)cc2)S(=O)(=O)c2ccccc21 |  | inactive: 3.52% |
| N#C/C(=C\c1cccnc1)C(=O)Nc1cccc2ccccc12 | inconclusive: 7.08 µM [inhibitor, full curve, poor fit] |  |
| O=C(CCO)c1ccc(O)cc1 |  | inactive: 0.707% |
| CCN1CCN(CCCNC(=O)c2ccc3c(c2)sc2nc(-c4ccc(OC)cc4)cn23)CC1 | inconclusive: 35.5 µM [inhibitor, single point] |  |
| COc1cc2c(cc1OC)C(c1ccc(Cl)cc1)=NCC2 | inconclusive: 8.91 µM [inhibitor, partial curve, poor fit] |  |
| COCc1ccc([C@@H]2C[C@H]3CN(Cc4ccccc4C)C(=O)[C@]34CCCN24)o1 | inconclusive: 17.8 µM [inhibitor, partial curve, poor fit] |  |
| Cc1cc(C)c(C(=O)C2OC(=O)C(C)(C)C(=O)C2(C)C)c(C)c1 (configuration not stated) |  | inactive: 9.15% |
| O=C(Nc1ccc(-c2csc(Nc3ccc(Cl)cc3)n2)cc1)c1cc([N+](=O)[O-])cc(C(F)(F)F)c1 | inconclusive: 7.94 µM [inhibitor, partial curve, poor fit] |  |
| Cc1ccc(Cn2nnc3c(=O)[nH]c(C4CCN(S(=O)(=O)c5ccccc5F)CC4)nc32)cc1 | inconclusive: 22.4 µM [inhibitor, single point] |  |
| C/C(=N\NC(=O)CNc1ccccc1)c1ccccc1 |  | inactive: 5.36% |
| O=C(/C=C/c1ccc2c(c1)OCO2)Nc1nncs1 | inconclusive: 35.5 µM [inhibitor, single point] |  |
| NC(=O)C1(NC(=O)[C@@H]2CC3(CC(c4cccc(NC(=O)c5cc([N+](=O)[O-])cc([N+](=O)[O-])c5)c4)=NO3)CN2C(=O)c2ccccc2)CC1 (some centres not stated) | inconclusive: 0.355 µM [inhibitor, full curve, poor fit] |  |
| Cc1ccc2nc(-c3cccc(NS(C)(=O)=O)c3)cc(-c3ccccc3)c2c1 | inconclusive: 35.5 µM [inhibitor, single point] |  |
| COc1ccc(C2CC(c3ccccc3)=NN2S(=O)(=O)c2ccccc2)cc1 (configuration not stated) | inconclusive: 22.4 µM [inhibitor, single point] |  |
| Cc1ccccc1-c1cc2nc(NCc3ccc4occc4c3)n(C)c(=O)c2s1 | inconclusive: 25.1 µM [inhibitor, single point] |  |
| CC1CCN(CCC(=O)N/N=C/c2ccc([N+](=O)[O-])cc2)CC1 | inconclusive: 14.1 µM [inhibitor, single point] |  |
| COc1ccc(Nc2c(-c3ccc(C)o3)nc3cc(C)ccn23)cc1 | inconclusive: 14.1 µM [inhibitor, single point] |  |
| CC(NCc1ccc(F)cc1)C(=O)Nc1cc(S(=O)(=O)N2CCCCC2)ccc1Cl (configuration not stated) | inconclusive: 17.8 µM [inhibitor, partial curve, poor fit] |  |
| Cc1ccc(-c2nnc(Nc3ccc4c(c3)OCO4)c3ccccc23)cc1S(N)(=O)=O | inconclusive: 22.4 µM [inhibitor, single point] |  |

| Structure (SMILES) | Potency | activity, negative = inhibition |
| --- | --- | --- |
| C=CCNC(=S)Nc1sc2c(c1C(N)=O)CCCC2 |  | inactive: -23.2% |
| Cc1ccc2[nH]c3c(=O)n(CC(=O)N(CCN(C)C)Cc4ccccc4)ncc3c2c1 | active: 11.2 µM |  |
| CCc1nc2c(OCCC3CCCCC3)cccn2c1N(C=O)Cc1ccc(OC)cc1 | inconclusive: 15.8 µM [inhibitor, partial curve, poor fit] |  |
| CC(C)C(OC(=O)c1cc2occc2n1C)C(=O)NCc1ccc2c(c1)OCO2 (configuration not stated) | inconclusive: 25.1 µM [inhibitor, single point] |  |
| FC(F)(F)c1cccc(NC(=S)NNC(=S)NCc2ccccc2)c1 | inconclusive: 35.5 µM [inhibitor, single point] |  |
| O=C(c1ccncc1)N1CCN(S(=O)(=O)c2cccc(Cl)c2)CC1 |  | inactive: -1.09% |
| Nc1c(C(=O)NCC2CCCO2)c2nc3ccccc3nc2n1-c1ccccc1 (configuration not stated) | inconclusive: 0.398 µM [inhibitor, full curve, poor fit] |  |
| Cc1nc(NCc2ccc3c(c2)OCO3)c2oc3ccccc3c2n1 | inconclusive: 1.41 µM [inhibitor, full curve] |  |
| Cc1ccc(NC(=O)c2ccc3c(c2)OCO3)cc1Cl | inconclusive: 15.8 µM [inhibitor, single point] |  |
| N#CC1=C(N)c2ccccc2CC12CCCCC2 | inconclusive: 25.1 µM [inhibitor, single point] |  |
| COc1cc(NC(=O)c2ccc([N+](=O)[O-])cc2)ccc1NC(=O)C(C)C |  | inactive: 4.16% |
| O=C(Nc1ccn(CCCNCc2ccccc2)c(=O)n1)OCc1ccccc1 | inconclusive: 6.31 µM [inhibitor, single point] |  |
| O=C1OCc2cc(NC(=O)C3CCCCC3)ccc21 | inconclusive: 5.62 µM [inhibitor, single point] |  |
| O=C(COc1ccc(Cl)cc1Cl)Nc1cccc2cccnc12 | inconclusive: 6.31 µM [inhibitor, single point] |  |
| CC(=O)N1CCCN(Cc2cn(-c3ccc(C)cc3)nc2-c2ccc(F)cc2)CC1 | inconclusive: 10 µM [inhibitor, partial curve, poor fit] |  |
| O=C(Nc1cccc(-c2cn3ccccc3n2)c1)c1cccc(Cl)c1 | inconclusive: 20 µM [inhibitor, single point] |  |
| CN(C)CCCN(C(=O)CCc1ccccc1)c1nc2ccc(Cl)cc2s1 | inconclusive: 25.1 µM [inhibitor, single point] |  |
| O=C(c1ccc2c(c1)CCN2S(=O)(=O)c1ccc(Cl)cc1)N1CCN(c2ccc(F)cc2)CC1 | inconclusive: 20 µM [inhibitor, partial curve, poor fit] |  |
| C=CCn1cc(C(=O)c2cc(Br)ccc2O)cc(C#N)c1=O |  | inactive: -27.9% |
| O=C(Cc1cccs1)N/N=C/C(Br)=C/c1ccccc1 |  | inactive: -13% |
| CC1(C(=O)NS(=O)(=O)c2cccc(Cl)c2)CCN1C(=O)C1CCCCC1 (configuration not stated) |  | inactive: 15.9% |
| COc1ccc(CCNCC(=O)Nc2ccc(OC(F)(F)F)cc2)cc1OC | inconclusive: 11.2 µM [inhibitor, single point] |  |
| Cc1ccc(Sc2ncccc2C(=O)O)cc1C |  | inactive: 3.39% |

| Structure (SMILES) | Potency | activity, negative = inhibition |
| --- | --- | --- |
| C/C(=N/Nc1ccnc2cc(Cl)ccc12)c1ccc(N)cc1 | inconclusive: 12.6 µM [inhibitor, single point] |  |
| O=C(Nc1ccc2c(c1)OCO2)c1cc(C2CCCCN2C(=O)CCc2ccccc2)on1 (configuration not stated) | inconclusive: 22.4 µM [inhibitor, single point] |  |
| COc1ccc2nc(C)cc(SCC(=O)NNC(=O)COc3ccccc3)c2c1 |  | inactive: -3.76% |
| N#Cc1ccc(S(=O)(=O)NC2CC2)cc1 |  | inactive: -7.26% |
| O=C(c1cccc(C(F)(F)F)c1)C1CCCN(Cc2cccn2-c2ccccn2)C1 (configuration not stated) | inconclusive: 15.8 µM [inhibitor, single point] |  |
| COc1ccc(CC(N)c2csc(NC(=O)Nc3ccccc3C(C)C)n2)cc1 (configuration not stated) | active: 5.62 µM |  |
| COc1ccc(-c2cc(C(=O)N3CCN(c4ccccc4)CC3)no2)cc1 | inconclusive: 17.8 µM [inhibitor, single point] |  |
| O=C(COc1ccc2ccccc2c1)Nc1ccc(Cc2ccncc2)cc1 | inconclusive: 0.562 µM [inhibitor, full curve, poor fit] |  |
| S=C1NC2=C(CCCC2)C2(CCCCC2)N1 |  | inactive: 2.72% |
| CCCCN(C(=O)CSc1nnc(-c2ccc(OC)cc2)n1C(C)C)c1c(N)n(Cc2ccccc2)c(=O)[nH]c1=O | inconclusive: 17.8 µM [inhibitor, single point] |  |
| COc1cc(C)c(C(=O)CSc2nnc(CNC(=O)c3ccco3)n2C)cc1C |  | inactive: 0.714% |
| CN1C(C(=O)Nc2cccc(O)c2)=CC(c2ccco2)=NS1(=O)=O | inactive |  |
| CC(C(=O)N1CCN(c2ccc(Cl)cc2)CC1)c1ncc(C(F)(F)F)cc1Cl (configuration not stated) |  | inactive: -5.59% |
| Cc1cc(NCc2ccccn2)n2ncc(-c3ccc(Cl)cc3)c2n1 | active: 11.2 µM |  |
| COc1ccc(-n2cc(CNCC3CCOCC3)c(-c3cccc(F)c3)n2)cc1 | inconclusive: 22.4 µM [inhibitor, single point] |  |
| O=C(COc1cccc(Cl)c1)NCC(c1cccs1)N1CCOCC1 (configuration not stated) |  | inactive: -24.4% |
| CCN(Cc1ccccc1)Cc1c(O)ccc2oc(C)c(C(=O)Nc3ccc(C)cc3C)c12 | inconclusive: 22.4 µM [inhibitor, single point] |  |
| COC(=O)c1ccsc1NC(=O)CN1CCN(c2ccc(F)cc2)CC1 | inconclusive: 28.2 µM [inhibitor, single point] |  |
| CSCCC(c1nnnn1C(C)(C)C)N1CCN(C/C=C/c2ccccc2)CC1 (configuration not stated) |  | inactive: -25.5% |
| COc1ccc(S(=O)(=O)N2CCCN(S(=O)(=O)c3ccc(OC)c(C)c3)CC2)cc1C | inconclusive: 35.5 µM [inhibitor, single point] |  |
| CCCc1cc(-c2nc(N)ncc2-c2ccc3c(c2)OCCCO3)c(O)cc1OC | inconclusive: 20 µM [inhibitor, single point] |  |

— PubChem BioAssay AID588855 (National Center for Advancing Translational Sciences (NCATS), 2011)
